Paper PMC6801822, “The Bactericidal Activity of Temporin Analogues Against Methicillin Resistant Staphylococcus aureus” (International Journal of Molecular Sciences, 2019)
≈ marks a conversion by molar mass, not a printed value. Non-standard residues stand in square brackets, D forms with d. Residues, ends and D or L forms follow the SMILES beside them. AEEA = NCCOCCOCC(=O)O

System: MRSA clinical isolate 52B
Experiment: microbe, parasite or virus in culture
Conditions: 24 h
Method: Antimicrobial activity of peptides was analyzed through determination of MIC parameter according to the standard microdilution technique performed on 96-well plates. Mueller-Hinton broth (MHB, Sigma Aldrich, St. Louis, MO, USA) was used as the working medium for all bacterial strains. Briefly, inoculum was prepared from freshly grown cultures of bacteria being at their exponential phase of growth. Each well of 96-well plates containing 100 µL of serially diluted peptides in PBS at desired concentration was inoculated with 100 µL of 10^5 CFU/mL of bacterial suspension. Then plates were incubated overnight 37 °C and absorbance was read at 600 nm after 24 h. Wells without peptide were treated as the positive control, while uninoculated MHB was defined as the negative control. All measurements were run in triplicates.

Structure (SMILES) | MIC (Staphylococcus aureus) [µg/mL] | MIC (MRSA clinical isolate 52B (skin), broth microdilution, MHB) [µg/mL]
CN[C@H](CC(C)C)C(=O)N[C@H]1C(=O)N[C@@H](CC(N)=O)C(=O)N[C@H]2C(=O)N[C@H]3C(=O)N[C@H](C(=O)N[C@H](C(=O)O)c4cc(O)cc(O)c4-c4cc3ccc4O)[C@H](O)c3ccc(c(Cl)c3)Oc3cc2cc(c3O[C@@H]2O[C@H](CO)[C@@H](O)[C@H](O)[C@H]2O[C@H]2C[C@](C)(N)[C@H](O)[C@H](C)O2)Oc2ccc(cc2Cl)[C@H]1O [Vancomycin, vancomycin] | 0.5 (≈ 0.345 µM) | –
CC(=O)NC[C@H]1CN(c2ccc(N3CCOCC3)c(F)c2)C(=O)O1 [Linezolid, linezolid] | 2 (≈ 5.93 µM) | –
CC[C@H](C)[C@H](NC(=O)COCCOCCNC(=O)[C@H](CCCNC(=N)N)NC(=O)[C@H](CC(C)C)NC(=O)[C@H](Cc1ccccc1)NC(=O)CNC(=O)[C@@H](C)NC(=O)[C@@H](N)Cc1ccc(O)cc1)C(=O)N[C@@H](CCCCN)C(=O)N[C@@H](CCCCN)C(=O)N[C@H](C(=O)N[C@@H](CC(C)C)C(=O)N[C@@H](CO)C(=O)N[C@H](CCCCN)C(=O)N[C@H](C(=O)N[C@@H](CCCCN)C(=O)N[C@@H](CCCCN)C(=O)N[C@@H](CC(C)C)C(=O)N[C@@H](CC(C)C)C(N)=O)[C@@H](C)CC)[C@@H](C)CC [DAL-PEG-DK5] (H-Y[dA]GFLR[AEEA]IKKILS[dK]IKKLL-NH2; N-terminus assumed) | – | 40 (≈ 17.6 µM)
